Results as given in paper PMC6899017.
No constants are given. Whether binding was seen depends on the method and setting. For some assays here: In cells and extracts the contact can be indirect. Some entries that bind do so weakly or less than the wild type. Tags and fused reporters may be left off the sequences shown. One block for each binder: values may come before it.

What was measured:
Vac8–GFP (S. cerevisiae) = molecular target: T1, Vac8–GFP (S. cerevisiae) (UniProt P39968); assay: ectopic recruitment to Ape1-tethered t-Atg13C–BFP (live-cell fluorescence microscopy); Vph1–mCherry atg13Δatg19Δvac8Δ cells; t-Atg13C–BFP clustered on Ape1 oligomers; Vac8–GFP or Vac8ΔN–GFP signal read against BFP puncta and vacuoles; 1 h starvation in SD-N
T1 sequence: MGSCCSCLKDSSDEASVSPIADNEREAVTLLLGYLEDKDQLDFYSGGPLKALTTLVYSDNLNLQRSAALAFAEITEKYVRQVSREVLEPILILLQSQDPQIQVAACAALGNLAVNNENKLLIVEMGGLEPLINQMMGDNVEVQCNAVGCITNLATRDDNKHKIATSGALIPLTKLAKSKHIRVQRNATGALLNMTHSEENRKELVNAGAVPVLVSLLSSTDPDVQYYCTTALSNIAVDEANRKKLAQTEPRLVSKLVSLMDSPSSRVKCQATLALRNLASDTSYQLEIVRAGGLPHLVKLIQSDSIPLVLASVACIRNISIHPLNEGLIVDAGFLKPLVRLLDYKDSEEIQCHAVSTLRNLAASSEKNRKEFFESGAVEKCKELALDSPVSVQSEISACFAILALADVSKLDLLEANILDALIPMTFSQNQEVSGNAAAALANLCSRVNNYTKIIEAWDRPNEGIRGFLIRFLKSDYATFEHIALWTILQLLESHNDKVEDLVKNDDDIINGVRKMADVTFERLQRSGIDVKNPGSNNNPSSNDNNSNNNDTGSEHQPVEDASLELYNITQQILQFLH

[1] = molecular target: T2, t-Atg13C–BFP [Atg19(152-191)-Atg13(567-738)-mTagBFP2] (S. cerevisiae) (UniProt P35193+Q06628); assay: as above
T2 sequence: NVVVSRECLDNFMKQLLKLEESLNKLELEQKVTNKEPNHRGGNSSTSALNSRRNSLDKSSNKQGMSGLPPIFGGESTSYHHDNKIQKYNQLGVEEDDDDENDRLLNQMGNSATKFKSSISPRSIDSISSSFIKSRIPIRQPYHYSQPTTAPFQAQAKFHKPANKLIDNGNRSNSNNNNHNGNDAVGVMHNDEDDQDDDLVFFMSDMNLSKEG

[2] = molecular target: T3, Myc–HKMT-tagged Atg13 (S. cerevisiae) (UniProt Q06628); assay: M-track (methylation tracking) in vivo protein proximity assay; in yeast cells; bait fused to Myc–HKMT (plasmid), prey Vac8–H3–HA (endogenous); 4 h 220 nM rapamycin; TCA extracts, anti-me3K9H3 western blot; Nvj1 tested in atg13Δ cells
T3 sequence: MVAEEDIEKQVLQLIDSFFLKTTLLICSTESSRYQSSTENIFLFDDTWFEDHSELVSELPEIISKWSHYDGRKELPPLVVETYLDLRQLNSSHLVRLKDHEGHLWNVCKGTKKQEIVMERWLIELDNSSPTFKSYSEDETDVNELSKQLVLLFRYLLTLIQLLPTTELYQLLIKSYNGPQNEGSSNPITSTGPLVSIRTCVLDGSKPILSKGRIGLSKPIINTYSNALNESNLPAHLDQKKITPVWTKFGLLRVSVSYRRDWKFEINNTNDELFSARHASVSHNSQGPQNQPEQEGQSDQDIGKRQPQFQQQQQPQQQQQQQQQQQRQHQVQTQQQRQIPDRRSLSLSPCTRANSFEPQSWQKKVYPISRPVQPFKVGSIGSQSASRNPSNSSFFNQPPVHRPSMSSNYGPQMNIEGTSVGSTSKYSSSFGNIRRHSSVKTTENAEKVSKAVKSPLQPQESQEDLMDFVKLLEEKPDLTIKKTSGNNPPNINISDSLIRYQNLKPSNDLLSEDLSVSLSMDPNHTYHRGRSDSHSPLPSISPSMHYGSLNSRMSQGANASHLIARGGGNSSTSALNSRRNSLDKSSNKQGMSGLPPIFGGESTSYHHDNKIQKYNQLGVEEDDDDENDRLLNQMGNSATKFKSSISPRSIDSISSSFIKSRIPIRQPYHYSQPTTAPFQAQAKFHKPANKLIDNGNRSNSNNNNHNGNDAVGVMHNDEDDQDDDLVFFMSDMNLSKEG

[3] = molecular target: T4, Myc–HKMT-tagged Nvj1 (S. cerevisiae) (UniProt P38881); assay: as above
T4 sequence: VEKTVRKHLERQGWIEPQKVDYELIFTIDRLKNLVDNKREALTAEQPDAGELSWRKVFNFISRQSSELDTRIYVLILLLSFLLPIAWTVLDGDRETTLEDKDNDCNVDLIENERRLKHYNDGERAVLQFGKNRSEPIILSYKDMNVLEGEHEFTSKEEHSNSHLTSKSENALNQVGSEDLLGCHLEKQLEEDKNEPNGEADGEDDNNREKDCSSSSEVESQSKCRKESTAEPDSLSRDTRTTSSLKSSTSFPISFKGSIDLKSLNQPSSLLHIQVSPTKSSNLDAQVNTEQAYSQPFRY

[4] = molecular target: T5, Myc–HKMT-tagged Atg13ΔC (Atg13^1-520) (S. cerevisiae) (UniProt Q06628); assay: as above
T5 sequence: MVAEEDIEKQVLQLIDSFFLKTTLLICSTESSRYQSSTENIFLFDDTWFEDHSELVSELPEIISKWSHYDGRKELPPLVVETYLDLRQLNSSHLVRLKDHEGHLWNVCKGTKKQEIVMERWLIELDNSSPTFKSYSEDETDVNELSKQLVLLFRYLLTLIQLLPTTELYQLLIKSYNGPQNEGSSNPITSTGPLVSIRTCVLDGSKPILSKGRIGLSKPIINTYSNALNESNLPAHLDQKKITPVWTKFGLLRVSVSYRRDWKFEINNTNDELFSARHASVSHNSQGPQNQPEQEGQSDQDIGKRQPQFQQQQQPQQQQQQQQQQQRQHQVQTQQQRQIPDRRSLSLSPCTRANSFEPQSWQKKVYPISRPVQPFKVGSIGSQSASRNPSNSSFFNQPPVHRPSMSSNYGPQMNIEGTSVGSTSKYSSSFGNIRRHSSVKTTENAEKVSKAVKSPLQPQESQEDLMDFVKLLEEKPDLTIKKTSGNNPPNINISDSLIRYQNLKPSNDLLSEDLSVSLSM

- binding (Vac8–GFP (S. cerevisiae)): binds
B1: t-Atg13C–BFP [Atg19(152-191)-Atg13(567-738)-mTagBFP2] (protein, UniProt P35193 152-191; Q06628 567-738)
chain: NVVVSRECLDNFMKQLLKLEESLNKLELEQKVTNKEPNHRGGNSSTSALNSRRNSLDKSSNKQGMSGLPPIFGGESTSYHHDNKIQKYNQLGVEEDDDDENDRLLNQMGNSATKFKSSISPRSIDSISSSFIKSRIPIRQPYHYSQPTTAPFQAQAKFHKPANKLIDNGNRSNSNNNNHNGNDAVGVMHNDEDDQDDDLVFFMSDMNLSKEG

- binding [1]: binds
B2: Vac8ΔN–GFP (Vac8^19-578-GFP) (domain or fragment, UniProt P39968 19-578)
chain: PIADNEREAVTLLLGYLEDKDQLDFYSGGPLKALTTLVYSDNLNLQRSAALAFAEITEKYVRQVSREVLEPILILLQSQDPQIQVAACAALGNLAVNNENKLLIVEMGGLEPLINQMMGDNVEVQCNAVGCITNLATRDDNKHKIATSGALIPLTKLAKSKHIRVQRNATGALLNMTHSEENRKELVNAGAVPVLVSLLSSTDPDVQYYCTTALSNIAVDEANRKKLAQTEPRLVSKLVSLMDSPSSRVKCQATLALRNLASDTSYQLEIVRAGGLPHLVKLIQSDSIPLVLASVACIRNISIHPLNEGLIVDAGFLKPLVRLLDYKDSEEIQCHAVSTLRNLAASSEKNRKEFFESGAVEKCKELALDSPVSVQSEISACFAILALADVSKLDLLEANILDALIPMTFSQNQEVSGNAAAALANLCSRVNNYTKIIEAWDRPNEGIRGFLIRFLKSDYATFEHIALWTILQLLESHNDKVEDLVKNDDDIINGVRKMADVTFERLQRSGIDVKNPGSNNNPSSNDNNSNNNDTGSEHQPVEDASLELYNITQQILQFLH

B3: Vac8–H3–HA (endogenously expressed H3–HA-tagged Vac8) (protein, UniProt P39968 1-578)
chain: MGSCCSCLKDSSDEASVSPIADNEREAVTLLLGYLEDKDQLDFYSGGPLKALTTLVYSDNLNLQRSAALAFAEITEKYVRQVSREVLEPILILLQSQDPQIQVAACAALGNLAVNNENKLLIVEMGGLEPLINQMMGDNVEVQCNAVGCITNLATRDDNKHKIATSGALIPLTKLAKSKHIRVQRNATGALLNMTHSEENRKELVNAGAVPVLVSLLSSTDPDVQYYCTTALSNIAVDEANRKKLAQTEPRLVSKLVSLMDSPSSRVKCQATLALRNLASDTSYQLEIVRAGGLPHLVKLIQSDSIPLVLASVACIRNISIHPLNEGLIVDAGFLKPLVRLLDYKDSEEIQCHAVSTLRNLAASSEKNRKEFFESGAVEKCKELALDSPVSVQSEISACFAILALADVSKLDLLEANILDALIPMTFSQNQEVSGNAAAALANLCSRVNNYTKIIEAWDRPNEGIRGFLIRFLKSDYATFEHIALWTILQLLESHNDKVEDLVKNDDDIINGVRKMADVTFERLQRSGIDVKNPGSNNNPSSNDNNSNNNDTGSEHQPVEDASLELYNITQQILQFLH
- binding [2]: binds
- binding [3]: binds
- binding [4]: no binding
